Measured values taken from the supplement of paper PMC4967469.
pIC50: −log10 of the molar value. A lower IC50 marks a more sensitive line; where the fit passes the top or lowest dose, that dose stands as a limit. For AUC the same curve is integrated over the 256-fold range of doses and scaled to a fraction; the more sensitive the line, the further below 1. For part of these data: The top dose, if marked as inferred, comes from the curve model; the source does not state it.

Columns and labels:
Experiment in all cases: Viability of human cancer cell lines after 72 h of drug (GDSC screen)
Temsirolimus = compound: CO[C@H]1C[C@@H]2CC[C@@H](C)[C@@](O)(O2)C(=O)C(=O)N2CCCC[C@H]2C(=O)O[C@H]([C@H](C)C[C@@H]2CC[C@@H](OC(=O)C(C)(CO)CO)[C@H](OC)C2)CC(=O)[C@H](C)/C=C(\C)[C@@H](O)[C@@H](OC)C(=O)[C@H](C)C[C@H](C)/C=C/C=C/C=C/1C [Temsirolimus]; conditions: top dose 0.2 µM
Procedure: (§1)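 Human cancer cell lines in 384-well plates, medium with 10% serum, drug for 72 h over a 256-fold dose range (nine 2-fold or five 4-fold steps up to the top dose). Adherent lines were fixed and stained with the nucleic acid dye Syto60, suspension lines read with resazurin; signal relative to control wells, capped at 0 and 100%. One two-parameter sigmoid per drug and line, fitted in a mixed model over all curves with the slope shared within a line.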

XMD15-27 = compound: C=CC(=O)Nc1ccc(C(=O)c2sc(Nc3ccc(N4CCN(C)CC4)cc3OC)nc2N)cc1 [XMD15-27]; conditions: top dose 10.24 µM; top dose inferred
Procedure: as §1

SL 0101-1 = compound: CC(=O)O[C@@H]1[C@@H](OC(C)=O)[C@@H](O)[C@H](Oc2c(-c3ccc(O)cc3)oc3cc(O)cc(O)c3c2=O)O[C@H]1C [SL 0101-1]; conditions: top dose 10 µM; top dose inferred
Procedure: as §1

Row | Cell Line | AUC (Temsirolimus) | pIC50 (Temsirolimus) | AUC (XMD15-27) | pIC50 (XMD15-27) | AUC (SL 0101-1) | pIC50 (SL 0101-1)
1 | GMS-10 (glioma, adherent) | 0.871 | 6.73 | 0.988 | < 4.99 | 0.984 | < 5.00
2 | GOTO (neuroblastoma, adherent) | 0.922 | < 6.70 | 0.983 | < 4.99 | 0.969 | < 5.00
3 | GR-ST (lymphoblastic leukaemia, suspension) | 0.585 | 7.65 | 0.945 | < 4.99 | 0.969 | < 5.00
4 | GRANTA-519 (B-cell lymphoma, suspension) | 0.824 | 6.99 | 0.991 | < 4.99 | 0.991 | < 5.00
5 | GT3TKB (stomach, adherent) | 0.871 | 6.82 | 0.989 | < 4.99 | 0.979 | < 5.00
6 | H4 (glioma, adherent) | 0.253 | 8.61 | 0.968 | < 4.99 | 0.982 | < 5.00
7 | H9 (lymphoid neoplasm, suspension) | 0.985 | < 6.70 | 0.894 | 5.07 | 0.992 | < 5.00
8 | H290 (mesothelioma, adherent) | 0.626 | 7.57 | 0.989 | < 4.99 | 0.989 | < 5.00
9 | H513 (mesothelioma, semi-adherent) | 0.872 | < 6.70 | 0.985 | < 4.99 | 0.984 | < 5.00
10 | H2369 (mesothelioma, adherent) | 0.531 | 7.82 | 0.985 | < 4.99 | 0.987 | < 5.00
11 | H2373 (mesothelioma, adherent) | 0.631 | 7.50 | 0.973 | < 4.99 | 0.978 | < 5.00
12 | H2461 (mesothelioma, adherent) | 0.802 | 6.89 | 0.983 | < 4.99 | 0.983 | < 5.00
13 | H2595 (mesothelioma, adherent) | 0.828 | 6.71 | 0.98 | < 4.99 | 0.977 | < 5.00
14 | H2731 (mesothelioma, adherent) | 0.826 | 6.84 | 0.806 | 5.21 | 0.984 | < 5.00
15 | H2795 (mesothelioma, adherent) | 0.382 | 8.23 | 0.779 | 5.39 | 0.978 | < 5.00
16 | H2869 (mesothelioma, adherent) | 0.887 | < 6.70 | 0.938 | < 4.99 | 0.984 | < 5.00
17 | H3118 (head and neck, adherent) | 0.795 | 6.99 | 0.969 | < 4.99 | 0.981 | < 5.00
18 | H3255 (lung adenocarcinoma, adherent) | 0.827 | 6.81 | 0.984 | < 4.99 | 0.978 | < 5.00
19 | HA7-RCC (kidney, adherent) | 0.779 | 7.04 | 0.985 | < 4.99 | 0.985 | < 5.00
20 | HAL-01 (lymphoblastic leukaemia, suspension) | 0.731 | 7.29 | 0.985 | < 4.99 | 0.966 | < 5.00
21 | HARA (lung squamous cell carcinoma, adherent) | 0.731 | 7.19 | 0.968 | < 4.99 | 0.979 | < 5.00
22 | HC-1 (hairy cell leukaemia, suspension) | 0.836 | 6.90 | 0.984 | < 4.99 | 0.986 | < 5.00
23 | HCC38 (breast, adherent) | 0.884 | < 6.70 | 0.952 | < 4.99 | 0.98 | < 5.00
24 | HCC1143 (breast, adherent) | 0.864 | < 6.70 | 0.98 | < 4.99 | 0.976 | < 5.00
25 | HCC1187 (breast, suspension) | 0.929 | < 6.70 | 0.986 | < 4.99 | 0.977 | < 5.00

Row | Cell Line | AUC (Temsirolimus) | pIC50 (Temsirolimus) | AUC (XMD15-27) | pIC50 (XMD15-27) | AUC (SL 0101-1) | pIC50 (SL 0101-1)
26 | HCC1395 (breast, adherent) | 0.877 | < 6.70 | 0.973 | < 4.99 | 0.985 | < 5.00
27 | HCC1419 (breast, adherent) | 0.565 | 7.69 | 0.98 | < 4.99 | 0.919 | < 5.00
28 | HCC1428 (breast, adherent) | 0.931 | < 6.70 | 0.986 | < 4.99 | 0.983 | < 5.00
29 | HCC1500 (breast, adherent) | 0.635 | 7.52 | 0.98 | < 4.99 | 0.982 | < 5.00
30 | HCC1569 (breast, adherent) | 0.946 | < 6.70 | 0.964 | < 4.99 | 0.963 | < 5.00
31 | HCC1937 (breast, adherent) | 0.717 | 7.24 | 0.982 | < 4.99 | 0.984 | < 5.00
32 | HCC2157 (breast, suspension) | 0.836 | 6.85 | 0.987 | < 4.99 | 0.981 | < 5.00
33 | HCC2218 (breast, suspension) | 0.955 | < 6.70 | 0.965 | < 4.99 | 0.983 | < 5.00
34 | HCC-15 (lung squamous cell carcinoma, adherent) | 0.813 | 6.83 | 0.973 | < 4.99 | 0.975 | < 5.00
35 | HCC-44 (lung adenocarcinoma, adherent) | 0.841 | 6.87 | 0.97 | < 4.99 | 0.984 | < 5.00
36 | HCC-56 (large intestine, adherent) | 0.98 | < 6.70 | 0.975 | < 4.99 | 0.987 | < 5.00
37 | HCC-78 (lung adenocarcinoma, adherent) | 0.935 | < 6.70 | 0.983 | < 4.99 | 0.969 | < 5.00
38 | HCC-827 (lung adenocarcinoma, adherent) | 0.866 | < 6.70 | 0.97 | < 4.99 | 0.942 | < 5.00
39 | HCT-15 (large intestine, adherent) | 0.87 | < 6.70 | 0.984 | < 4.99 | 0.987 | < 5.00
40 | HD-MY-Z (Hodgkin lymphoma, adherent) | 0.543 | 7.79 | 0.951 | < 4.99 | 0.986 | < 5.00
41 | HDLM-2 (Hodgkin lymphoma, suspension) | 0.863 | 6.77 | 0.988 | < 4.99 | 0.988 | < 5.00
42 | HDQ-P1 (breast, adherent) | 0.974 | < 6.70 | 0.982 | < 4.99 | 0.969 | < 5.00
43 | HEC-1 (endometrium, adherent) | 0.869 | 6.76 | 0.989 | < 4.99 | 0.985 | < 5.00
44 | HGC-27 (stomach, adherent) | 0.431 | 8.08 | 0.988 | < 4.99 | 0.972 | < 5.00
45 | HH (T-cell leukaemia, suspension) | 0.53 | 7.81 | 0.932 | < 4.99 | 0.942 | < 5.00
46 | HL-60 (acute myeloid leukaemia, suspension) | 0.884 | 6.75 | 0.986 | < 4.99 | 0.982 | < 5.00
47 | HN (head and neck, adherent) | 0.786 | 7.09 | 0.983 | < 4.99 | 0.942 | < 5.00
48 | HO-1-u-1 (head and neck, adherent) | 0.628 | 7.56 | 0.983 | < 4.99 | 0.988 | < 5.00
49 | HOP-62 (lung adenocarcinoma, adherent) | 0.742 | 7.21 | 0.984 | < 4.99 | 0.974 | < 5.00
50 | HSC-2 (head and neck, adherent) | 0.762 | 7.18 | 0.989 | < 4.99 | 0.977 | < 5.00

Row | Cell Line | AUC (Temsirolimus) | pIC50 (Temsirolimus) | AUC (XMD15-27) | pIC50 (XMD15-27) | AUC (SL 0101-1) | pIC50 (SL 0101-1)
51 | HSC-39 (stomach, suspension) | 0.917 | < 6.70 | 0.962 | < 4.99 | 0.934 | < 5.00
52 | HT (B-cell lymphoma, suspension) | 0.788 | 7.10 | 0.986 | < 4.99 | 0.966 | < 5.00
53 | HT-3 (cervix, adherent) | 0.896 | < 6.70 | 0.977 | < 4.99 | 0.983 | < 5.00
54 | HT-115 (large intestine, adherent) | 0.976 | < 6.70 | 0.991 | < 4.99 | 0.991 | < 5.00
55 | HT-1080 (fibrosarcoma, adherent) | 0.556 | 7.76 | 0.989 | < 4.99 | 0.969 | < 5.00
56 | HT-1376 (bladder, adherent) | 0.889 | < 6.70 | 0.985 | < 4.99 | 0.984 | < 5.00
57 | Hey (ovary, adherent) | 0.752 | 7.20 | 0.98 | < 4.99 | 0.942 | < 5.00
58 | Hs633T (fibrosarcoma, adherent) | 0.254 | 8.54 | 0.99 | < 4.99 | 0.992 | < 5.00
59 | Hs683 (glioma, adherent) | 0.764 | 7.13 | 0.984 | < 4.99 | 0.962 | < 5.00
60 | Hs746T (stomach, adherent) | 0.844 | < 6.70 | 0.981 | < 4.99 | 0.98 | < 5.00
61 | Hs766T (pancreas, adherent) | 0.634 | 7.48 | 0.983 | < 4.99 | 0.975 | < 5.00
62 | Hs939-T (melanoma, adherent) | 0.728 | 7.23 | 0.986 | < 4.99 | 0.986 | < 5.00
63 | Hs-578-T (breast, adherent) | 0.625 | 7.55 | 0.987 | < 4.99 | 0.96 | < 5.00
64 | HuCCT1 (biliary tract, adherent) | 0.892 | < 6.70 | 0.984 | < 4.99 | 0.966 | < 5.00
65 | HuH-7 (liver, adherent) | 0.493 | 7.92 | 0.985 | < 4.99 | 0.987 | < 5.00
66 | HuO9 (osteosarcoma, adherent) | 0.757 | 7.12 | 0.945 | < 4.99 | 0.971 | < 5.00
67 | HuO-3N1 (osteosarcoma, adherent) | 0.82 | 6.78 | 0.979 | < 4.99 | 0.974 | < 5.00
68 | HuP-T3 (pancreas, adherent) | 0.848 | < 6.70 | 0.981 | < 4.99 | 0.983 | < 5.00
69 | IA-LM (large cell lung carcinoma, adherent) | 0.86 | < 6.70 | 0.983 | < 4.99 | 0.973 | < 5.00
70 | IGR-1 (melanoma, adherent) | 0.929 | < 6.70 | 0.99 | < 4.99 | 0.99 | < 5.00
71 | IGR-37 (melanoma, adherent) | 0.535 | 7.81 | 0.989 | < 4.99 | 0.988 | < 5.00
72 | IMR-5 (neuroblastoma, adherent) | 0.992 | < 6.70 | 0.87 | 5.15 | 0.991 | < 5.00
73 | IPC-298 (melanoma, adherent) | 0.694 | 7.36 | 0.98 | < 4.99 | 0.965 | < 5.00
74 | IST-MEL1 (melanoma, adherent) | 0.709 | 7.26 | 0.975 | < 4.99 | 0.97 | < 5.00
